The values below come from the RNAGym collection of RNA variant scans (doi:10.1073/pnas.2313332121).

First the molecules themselves.
B1: TPR 5TU (parent)
chain: GGAUCUUCUCGAUCUAACAAAAAAGACAAAUCUGCCACAAAGCUUGAGAGCAUCUUCGGAUGCAGAGGCGGCAGCCUUCGGUGGCGCGAUAGCGCCAACGUUCUCAACUAUGACACGCAAAACGCGUGCUCCGUUGAAUGGAGUUUAUCAUG

This sample is rich in variants without activity.

The variants in the series derive from B1. The series can be described thus: polymerase ribozyme fitness, log enrichment relative to wild type (log ratio); higher = more active; in vitro selection for triplet polymerase activity. Put shortly:
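Only genotypes with ≥10 input reads and ≥1 read per output were kept after Illumina sequencing of input and output libraries. These libraries were PCR-built, transcribed mutants of each subunit of a heterodimeric triplet polymerase ribozyme, each put through one triplicate in vitro selection round with frozen incubation at −7 °C, gel excision of extended constructs, streptavidin-bead capture and RT-PCR. Fitness is a logarithmic ratio of genotype enrichment to wild-type enrichment, from inverse-variance-weighted replicate averages, with the logarithm in base 2.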
Consider G25C U56A U104C A106U A113G U139G U145A, for which the “polymerase ribozyme fitness (log ratio)” value was ≤ -4.2.
The figure for G25C C75A C93G C125U is ≤ -4.2; for A24U C96U G117A G133A U145A it is ≤ -4.2.
Then G25U A47G A60G C75A A91U A122U G141C A142G, with ≤ -4.2.
The figure for A24C G50C C96G A110U is ≤ -4.2; for A24U U44A G74A U130A it is ≤ -4.2; for A26C G58A G59A U77C U90A C96U G152U it is ≤ -4.2.
Take G25C A64C G84C A113C: the “polymerase ribozyme fitness (log ratio)” value was ≤ -4.2.
As to A24G G94C, the “polymerase ribozyme fitness (log ratio)” value is -3.21.
The figure for A24C A89C G92C G140A is ≤ -4.2; for A24U G86A C103G G117A A120C A138C it is ≤ -4.2.
The figure for A24U C35A A113U G141A is ≤ -4.2; for A24G C69A A91U A138U G143U it is ≤ -4.2.
The figure for A23U U56A C76A C103G C149G is ≤ -4.2; for A26C G83C A91G C108A C116G G143A it is ≤ -4.2.
Consider A24U U55C C85A, for which the “polymerase ribozyme fitness (log ratio)” value was -1.34.
Then A24C C27G G94A A106G C108U, with -3.93; and A24C A37C C72U G92A A119U C125A, with ≤ -4.2.
As for A23U G140U G141U, the “polymerase ribozyme fitness (log ratio)” value is ≤ -4.2.
The figure for A24U G46A U61A U134A A137C U144A is ≤ -4.2; for A24G A26U G58U G83A G92A C93U C105G A142C it is ≤ -4.2.
For the variant G25U A89C, the “polymerase ribozyme fitness (log ratio)” value is -3.41.
The figure for A26C G46U C54G C76U C87G C93A G128C U135G is ≤ -4.2; for A24C U45A C57U G84A it is ≤ -4.2; for A24U C35U C38G A89U A91U it is -3.93.
The figure for A24G G42U C72A A91U G92A U102G G136U is ≤ -4.2; for G25C G48A C85U G86U A89C U134A it is ≤ -4.2; for A23U G65A G88C A106U U134G it is ≤ -4.2.
Then A24G C87G, with ≤ -4.2.
Take A24G C87A: the “polymerase ribozyme fitness (log ratio)” value is ≤ -4.2.
For the variant A24G A30G G152A, the “polymerase ribozyme fitness (log ratio)” value is ≤ -4.2.
With A24U U45A A49C C57G U77G G83C A89U, the “polymerase ribozyme fitness (log ratio)” value was ≤ -4.2.
Regarding G25A A52U G92A G100U C105A, the “polymerase ribozyme fitness (log ratio)” value is ≤ -4.2.
The figure for A24U A30U U77C U144A is ≤ -4.2.
Then G25C A28G A40G G126C G141A A142G U146C, with ≤ -4.2; and A26C G86A U102A G128U C131G, with ≤ -4.2; and A24G A40C U90C U127G A142G G143C, with ≤ -4.2.
Then G25C G46C C85G C87U G124C C125U U146C, with ≤ -4.2; and A24C A37U A40C G46C C75A C116U A138C, with ≤ -4.2; and A26C C57A U135G, with ≤ -4.2.
Regarding G25U A40U G42A C43A C63A A64C C79G C93A A106G, the “polymerase ribozyme fitness (log ratio)” value is ≤ -4.2.
The figure for G25C A29C C85U A97U A113U C123A A147G is ≤ -4.2; for G25C A26G U53A G143A it is ≤ -4.2.
Then G25U A41U A66U G71A G83A G141C, with ≤ -4.2; and A24U A41C C54U G67U G88A, with ≤ -4.2; and A24G C93G, with ≤ -4.2.
Then A24G C93U, with -3.49.
Take G25A A37G C54A C87G: the “polymerase ribozyme fitness (log ratio)” value is ≤ -4.2.
With A26C U55A G71U G80U G88U G117A, the “polymerase ribozyme fitness (log ratio)” value is ≤ -4.2.
The figure for A26C C51U A66G U111A A120U U146C is ≤ -4.2; for A24U C32A U53A C85U A115G A150U it is ≤ -4.2.
Then A24C U77G, with ≤ -4.2; and A24U A98U C99U U127G, with -3.94.
The figure for A24U A26U U55C A91G is ≤ -4.2; for A24U G74U C99U A142C C149G it is ≤ -4.2.
For the variant A24G G62U G94A C116G A120U U127A U135C, the “polymerase ribozyme fitness (log ratio)” value was ≤ -4.2.
In the case of A24U U53A C57G A115U U151A, the “polymerase ribozyme fitness (log ratio)” value was ≤ -4.2.
Then A24G A29G G46U, with ≤ -4.2; and A24C, with -3.22.
A24G: the “polymerase ribozyme fitness (log ratio)” value is -1.75.
The figure for A24U C93U G136A is -1.47; for G25A G42C C43A G59C G83A C85U C114G A142U G143U it is ≤ -4.2.
Then A24U A39C A73G C108U, with ≤ -4.2; and A24G G50C A52U A66U C75G U134G, with ≤ -4.2; and A24C C93U, with ≤ -4.2.
Then G25U U134G G141A, with ≤ -4.2; and A23U G65A C87A U146G, with ≤ -4.2; and A24G A52C G58C G59C G65A G80C C96U U101G G140U G141U, with ≤ -4.2.
For the variant A26C U45G C63U C75U G80C G112C U144G, the “polymerase ribozyme fitness (log ratio)” value is ≤ -4.2.
Then G25C A28U A52C U53A C57U C96A C116A A147G, with ≤ -4.2; and A24G C32A U33G G65A G80A A98U G126C U145G A147C, with ≤ -4.2.
Then A24U C125A, with -0.572; and A24U U55G G70C C75G C85G G128A, with ≤ -4.2; and G25A G88A A91G C96A, with ≤ -4.2.
Then G25C A28C C43A U101A G128A, with ≤ -4.2; and A24C G74C U90G C99G U127A, with ≤ -4.2; and G25U U90G C96G A106U C123G, with ≤ -4.2.
For A24U G25A A39G A60U G83C, the “polymerase ribozyme fitness (log ratio)” value was ≤ -4.2.
Regarding A24G G25U A29U C32A C54U G94C C131G, the “polymerase ribozyme fitness (log ratio)” value is ≤ -4.2.
Then G25C G68C C93A C99G C114U, with ≤ -4.2.
Then A26C C75A C87A, with ≤ -4.2; and A24U A52U G67U A73U G94U A138C A150U, with ≤ -4.2; and A26C A40U C85U C96G G143A, with ≤ -4.2.
The figure for A24U G100C U104G is ≤ -4.2.
